Among all 310,000 compounds or so, about 14,000 (4.5%) showed an effect of 50% or more. The effect is printed as a negative number. Some of the results follow.
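Further: peak tail current of the secondary pulse compared with the same well before compound.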

Chain of human ether-à-go-go-related gene (hERG) potassium channel (Q12809 whole entry, looked up): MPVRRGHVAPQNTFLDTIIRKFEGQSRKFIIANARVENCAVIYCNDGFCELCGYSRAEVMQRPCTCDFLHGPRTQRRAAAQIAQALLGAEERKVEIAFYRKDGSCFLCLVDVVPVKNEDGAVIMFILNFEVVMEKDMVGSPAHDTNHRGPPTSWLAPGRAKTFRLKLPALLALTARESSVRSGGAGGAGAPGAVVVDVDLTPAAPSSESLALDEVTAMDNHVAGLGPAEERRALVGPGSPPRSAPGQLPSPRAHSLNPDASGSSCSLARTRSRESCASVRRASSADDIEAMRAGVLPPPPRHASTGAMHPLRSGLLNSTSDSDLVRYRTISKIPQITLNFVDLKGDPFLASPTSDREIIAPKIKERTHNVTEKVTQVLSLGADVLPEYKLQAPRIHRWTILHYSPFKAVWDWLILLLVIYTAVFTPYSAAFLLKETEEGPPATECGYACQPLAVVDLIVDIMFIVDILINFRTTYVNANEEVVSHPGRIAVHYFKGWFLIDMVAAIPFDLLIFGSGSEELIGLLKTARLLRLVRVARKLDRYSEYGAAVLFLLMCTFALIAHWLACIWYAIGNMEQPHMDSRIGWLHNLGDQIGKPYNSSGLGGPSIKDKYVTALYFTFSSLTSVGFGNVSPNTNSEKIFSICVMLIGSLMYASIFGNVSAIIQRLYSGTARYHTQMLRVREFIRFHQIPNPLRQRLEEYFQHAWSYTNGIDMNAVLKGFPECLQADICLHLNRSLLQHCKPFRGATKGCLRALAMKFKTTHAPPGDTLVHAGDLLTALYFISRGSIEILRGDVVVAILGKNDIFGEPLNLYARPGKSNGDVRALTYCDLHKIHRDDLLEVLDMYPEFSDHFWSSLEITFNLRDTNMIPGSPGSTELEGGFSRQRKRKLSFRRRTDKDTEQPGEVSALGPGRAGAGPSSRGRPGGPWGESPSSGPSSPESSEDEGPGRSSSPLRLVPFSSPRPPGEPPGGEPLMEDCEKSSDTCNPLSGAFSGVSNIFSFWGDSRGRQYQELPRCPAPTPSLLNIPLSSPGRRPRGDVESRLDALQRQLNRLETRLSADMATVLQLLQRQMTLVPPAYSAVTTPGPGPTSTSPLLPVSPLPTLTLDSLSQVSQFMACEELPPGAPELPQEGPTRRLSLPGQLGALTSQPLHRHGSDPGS

The assay concerns the target human ether-à-go-go-related gene (hERG) potassium channel (human, UniProt Q12809). The experiment in a line: primary screen, population patch clamp on CHO cells stably expressing hERG.
Consider `C1CCN(c2nc3nonc3nc2NCC2CCOCC2)CC1`, for which the “hERG current change (%, negative = inhibition) at 10uM” value turned out to be 19.6%.
In the case of `Cc1ccc2cc(CCNC(=O)c3cccs3)c(=O)[nH]c2c1`, the “hERG current change (%, negative = inhibition) at 10uM” value was -4.89%.
Take `O=C(Nc1ccccc1)C1CCN(C(=O)c2ccccc2)CC1`: the “hERG current change (%, negative = inhibition) at 10uM” value is listed as 4.62%.
As to `C/C(=N\NC(=O)C1=NNC(=O)C1C)c1cccs1` (stereo not shown), the “hERG current change (%, negative = inhibition) at 10uM” value is recorded as 11%.
The result for `O=C(CCNS(=O)(=O)c1ccccc1)OCC(=O)c1ccc(F)cc1` reads -2.98%; that for `O=S1(=O)CCC(NC(=S)Nc2ccc(Cl)cc2)C1` (stereo not shown), -4.28%; that for `O=C(Nc1nc(-c2ccccc2)ns1)c1ccncc1`, 2.33%.
For the compound `O=c1c(S(=O)(=O)c2ccc(Cl)cc2)cn(Cc2ccccc2F)c2ccc(F)cc12`, the “hERG current change (%, negative = inhibition) at 10uM” value is on record as 10.2%.
Regarding `COc1ccc(C)cc1NC(=O)CN1C(=O)COc2ccc(S(=O)(=O)N3CCCCC3)cc21`, the “hERG current change (%, negative = inhibition) at 10uM” value was found to be 15.3%.
As to `CC1(C)CC(=O)C2=C(C1)NC(=O)CC2c1ccc(F)cc1` (stereo not shown), the “hERG current change (%, negative = inhibition) at 10uM” value came to 5.09%.
In the case of `Cc1cccc2cc(C#N)c(SCC(=O)NCC3CCCO3)nc12` (stereo not shown), the “hERG current change (%, negative = inhibition) at 10uM” value stood at 17%.
`CCCCCCCCC(=O)N/N=C/c1cccc(Br)c1`: the “hERG current change (%, negative = inhibition) at 10uM” value is listed as -2.34%.
For `COc1ccc(OC)c2c(C)cc(NCCN3CCOCC3)nc12`, the “hERG current change (%, negative = inhibition) at 10uM” value is on record as -34.5%.
For the compound `O=C(CN1C(=O)NC2(CCCC2)C1=O)N1CCN(S(=O)(=O)c2cccc(F)c2)CC1`, the “hERG current change (%, negative = inhibition) at 10uM” value was 22.2%.
As for `C/C(=N\NC(=O)Cc1ccc(F)cc1)c1ccc(O)cc1`, the “hERG current change (%, negative = inhibition) at 10uM” value is on record as 13%.
As for `Cc1ccc(-c2cc(-c3ccc(C)cc3)[n+](-c3ccc(C(=O)[O-])cc3)c(-c3ccc(C)cc3)c2)cc1`, the “hERG current change (%, negative = inhibition) at 10uM” value is given as -26.8%.
Regarding `CC(=O)N1CCC(N(C(=O)Nc2ccc(Cl)cc2)C(C)C)CC1`, the “hERG current change (%, negative = inhibition) at 10uM” value is on record as -6.69%.
Take `Cc1nc2ccccc2c2oc(C(=O)NCCCN3CC(C)CC(C)C3)cc12` (stereo not shown): the “hERG current change (%, negative = inhibition) at 10uM” value is listed as -36.2%.
On to `CC(C)CNS(=O)(=O)c1cc(C(=O)N2CC(C)OC(C)C2)c(Cl)cc1Cl` (stereo not shown), for which the “hERG current change (%, negative = inhibition) at 10uM” value is -13.1%.
Consider `COc1ccc(N2CCN(S(=O)(=O)CCNC(=O)CCCc3ccccc3)CC2)cc1`, for which the “hERG current change (%, negative = inhibition) at 10uM” value is on record as -0.516%.
In the case of `CC(C)N1CC(COc2ccc(Br)cc2)OC1=O` (stereo not shown), the “hERG current change (%, negative = inhibition) at 10uM” value is on record as -39.5%.
Under `COc1ccc(NC(=O)c2cc3n(n2)C(C(F)(F)F)CC(c2ccc4c(c2)OCO4)N3)cc1OC` (stereo not shown) stands -0.625%.
In the case of `O=C(OCC(=O)N1CCOCC1)c1ccc2ccccc2c1O`, the “hERG current change (%, negative = inhibition) at 10uM” value is -13.8%.
Consider `Cc1ccc(-c2cc(C(F)F)nc(N3CCC(C)CC3)n2)cc1`, for which the “hERG current change (%, negative = inhibition) at 10uM” value stood at 14.5%.
`Cc1cccc(N2CCN(C(=O)c3ccccc3NC(=O)C3CCCCC3C(=O)O)CC2)c1` (stereo not shown): the “hERG current change (%, negative = inhibition) at 10uM” value is on record as -1.28%.
Take `COCc1nnc(NC(=O)c2cc(C(=O)OC)cc([N+](=O)[O-])c2)s1`: the “hERG current change (%, negative = inhibition) at 10uM” value was -2.76%.
On to `COc1ccccc1NC(=O)CSc1ccc(-c2cccs2)nn1`, for which the “hERG current change (%, negative = inhibition) at 10uM” value is on record as -3.9%.
As to `CC(C)(Oc1ccc(Cl)cc1)C(=O)OCC(=O)Nc1ncc(Cl)cc1Cl`, the “hERG current change (%, negative = inhibition) at 10uM” value was -2.34%.
For `CCOC(=O)N1CCN(Cc2nc3c(c(=O)n(C)c(=O)n3C)n2Cc2cccc(C)c2)CC1`, the “hERG current change (%, negative = inhibition) at 10uM” value is -30.1%.
Take `CCOC(=O)C(N)CSC1CC(=O)N(CCc2ccccc2)C1=O.Cl` (stereo not shown): the “hERG current change (%, negative = inhibition) at 10uM” value was 10.9%.
For the compound `COc1cc(/C=N/n2cnnc2)ccc1OS(=O)(=O)c1ccccc1[N+](=O)[O-]`, the “hERG current change (%, negative = inhibition) at 10uM” value is recorded as -51%.
For `COC(=O)c1c(N2C(=O)Nc3ccccc3N2O)sc2c1CCCC2`, the “hERG current change (%, negative = inhibition) at 10uM” value was 6.68%.
For the compound `COc1nc(NC(C)C)nc(NC(C)C)n1`, the “hERG current change (%, negative = inhibition) at 10uM” value was determined as 2.02%.
`CCOC(=O)c1cnc(-n2nc(C)cc2C)nc1NCCc1ccccc1`: the “hERG current change (%, negative = inhibition) at 10uM” value is -51.6%.
In the case of `Cc1cccc(C(=O)NCCC(=O)Nc2nc(C)c(Cc3ccc4c(c3)OCO4)s2)c1`, the “hERG current change (%, negative = inhibition) at 10uM” value was 4.11%.
Consider `CCOc1ccccc1NC(=S)/C(=C(\[O-])c1ccc2c(c1)OCCO2)[n+]1ccc(CC)cc1`, for which the “hERG current change (%, negative = inhibition) at 10uM” value is -16%.
Regarding `O=C(O)CC(NC(=O)CC(c1ccccc1)c1ccccc1)c1cccc([N+](=O)[O-])c1` (stereo not shown), the “hERG current change (%, negative = inhibition) at 10uM” value stood at 17.5%.
As to `COCCNC(=S)N/N=C(\C)c1ccc(Cl)c(Cl)c1Cl`, the “hERG current change (%, negative = inhibition) at 10uM” value is recorded as 12%.
With `CCCn1c(SCC(=O)NCc2ccccc2)n[nH]c1=O`, the “hERG current change (%, negative = inhibition) at 10uM” value is given as 7.49%.
`Cc1nc2ccccc2n1CC(=O)OCC(=O)NC1CC1`: the “hERG current change (%, negative = inhibition) at 10uM” value is given as 29.4%.
Under `CC1(c2cccc(Br)c2)NC(=O)N(CC(=O)NC2CCCCC2)C1=O` (stereo not shown) stands -7.24%; under `COC(=O)C(CC(=O)c1ccc(Br)cc1)n1nc(C)cc1C` (stereo not shown), 5.79%.
Turning to `CCCc1ccc(OCC(O)CN2CCN(CCO)CC2)cc1.Cl` (stereo not shown), the “hERG current change (%, negative = inhibition) at 10uM” value is -13.7%.

The values are drawn from PMC4336329 (PLoS ONE, 2015).
